{"source": "the supplement of paper PMC11417369", "note": "± gives the standard deviation of the averaged measurements. Some of the results follow.", "data": [{"tested_on": "PfAP2-LT AP2 domain (GST-tagged)", "test": "gcPBM binding intensity (ln(normalized median fluorescence intensity)); higher = stronger DNA binding", "summary_of_the_method": "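DNA-binding domains from P. falciparum, fused to GST and produced in E. coli, were put on an Agilent 4 × 180k double-stranded probe array for 1 h in 1× PBS holding 1% milk, 0.2 mg/ml BSA, 0.5% salmon testes DNA and 0.03% Triton X-100. Probes were primer-extended, 36 bp long and drawn from intergenic genomic regions, with negative controls included. After Alexa488 anti-GST antibody detection and a 488 nm scan, binding intensity was set as the highest Masliner-normalised natural-log median intensity across replicate spots of either probe orientation.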", "values": [{"sequence": "GCATTGATCAAACATACACACATGGTTAATAAAAAT [CACACA_site2085]", "gcPBM binding intensity (ln)": "9.25 ± 0.33"}, {"sequence": "GTGATTTCTATGAATTGTACTTAAATATAGTTATAT [XGTACX_site231]", "gcPBM binding intensity (ln)": "8.69 ± 0.43"}, {"sequence": "CGTCCAAAATATCCTTCACACACGAACAGTTTCATT [CACACA_site2729]", "gcPBM binding intensity (ln)": "9.2 ± 0.43"}, {"sequence": "CTATAATATTATAACAGTACATAATATTATATATAT [XGTACX_site1414]", "gcPBM binding intensity (ln)": "8.66 ± 0.33"}, {"sequence": "TTTAAATAAAAATGGAGTACTCTAAAAAAAAAAAAA [XGTACX_site1233]", "gcPBM binding intensity (ln)": "8.44 ± 0.47"}, {"sequence": "ATATGAAAAACTTCATGTACTTATTATAAAATATAA [XGTACX_site2725]", "gcPBM binding intensity (ln)": "8.4 ± 0.52"}, {"sequence": "TATATTTTTTAAAAAAGTACAAAGTAATTATTGATT [XGTACX_site2420]", "gcPBM binding intensity (ln)": "8.49 ± 0.45"}, {"sequence": "TGAAATGAAAGAACAGCACACATATATATTATATAT [CACACA_site8613]", "gcPBM binding intensity (ln)": "9.04 ± 0.45"}, {"sequence": "GTAGTACATTCTAGAATACACACCTATATATATATA [CACACA_site522]", "gcPBM binding intensity (ln)": "9.34 ± 0.28"}, {"sequence": "ATTCTAATTTTATGAAACGATTATTTTGAATTCATT [XGTACX_negctrl_site578]", "gcPBM binding intensity (ln)": "8.6 ± 0.45"}, {"sequence": "ATTTTTAATTTTTTCACACATATATTTAAAATAAAA [CACACA_site4799]", "gcPBM binding intensity (ln)": "8.26 ± 0.52"}, {"sequence": "GATTACCTTTTTTTTTTTTTTTTTTTTTTTTTTTTC [CACACA_negctrl_site147]", "gcPBM binding intensity (ln)": "8.66 ± 0.49"}, {"sequence": "ATAAAAAAAAATATATGTACATATATAAATTGATAT [XGTACX_site7409]", "gcPBM binding intensity (ln)": "9 ± 0.55"}, {"sequence": "CTTTTTTTTTTGTATTGTACTTTATTTTTACATCGT [XGTACX_site2918]", "gcPBM binding intensity (ln)": "9.02 ± 0.5"}, {"sequence": "AATAGTGTCATAAAAACTATTATCATATAATGTGAA [CACACA_negctrl_site1578]", "gcPBM binding intensity (ln)": "8.62 ± 0.45"}, {"sequence": "TAATTTATAACACGCGCACACATATATATATAGTAA [CACACA_site121]", "gcPBM binding intensity (ln)": "9.21 ± 0.35"}, {"sequence": "TTGTTGTGTATTATCGTGCACATAATATAAAAGATT", "gcPBM binding intensity (ln)": "8.83 ± 0.33"}, {"sequence": "TTTCTTTTTAACTCTTACATAATAGGTGGTAGAAGG [TGCATGCA_negctrl_site176]", "gcPBM binding intensity (ln)": "8.35 ± 0.46"}, {"sequence": "TTATTTATTTATTATAGTTCACTTGAAAATACAAGA [CACACA_negctrl_site1480]", "gcPBM binding intensity (ln)": "8.25 ± 0.41"}, {"sequence": "CATATATACAGTAACACACACAAAAAAATATGAATA [CACACA_site3996]", "gcPBM binding intensity (ln)": "9.62 ± 0.41"}, {"sequence": "ATAAAAAAAAAAAATACACACATATATATATATATA [CACACA_site1709]", "gcPBM binding intensity (ln)": "9.82 ± 0.41"}, {"sequence": "AAAAAATATAAAAAAACACACAAAAAAAAAAAAAAA [CACACA_site1382]", "gcPBM binding intensity (ln)": "8.6 ± 0.59"}, {"sequence": "TTCTTAAAAAATCAAACACACATATATAAATACATA [CACACA_site5301]", "gcPBM binding intensity (ln)": "8.66 ± 0.4"}, {"sequence": "AAAGACGTTTATAAATGTACATACACTTTAAAAGTT [XGTACX_site8753]", "gcPBM binding intensity (ln)": "8.75 ± 0.47"}, {"sequence": "CCCCATTTATCTTAAGCATGCCATGGTTTTAGATAT [TGCATGCA_site24]", "gcPBM binding intensity (ln)": "9.19 ± 0.099"}, {"sequence": "AATTATTTTAGAAACACACAAATTAGAAAAAACATA [CACACA_site7673]", "gcPBM binding intensity (ln)": "8.69 ± 0.49"}, {"sequence": "GTATATATCTCAGAGCATAATAGTATAATTCGGTCA [CACACA_negctrl_site876]", "gcPBM binding intensity (ln)": "8.84 ± 0.4"}, {"sequence": "AATAACATTATTTTATGTACACATGAAAAATAAAAT [XGTACX_site4657]", "gcPBM binding intensity (ln)": "8.67 ± 0.38"}, {"sequence": "TGTAATAAACTACTTTTTTTTTTTTTTTTTTTTTTT [CACACA_negctrl_site1021]", "gcPBM binding intensity (ln)": "8.58 ± 0.2"}, {"sequence": "AATATCAAAATAACATGTACATGTTATATTTTATTT [XGTACX_site5891]", "gcPBM binding intensity (ln)": "8.71 ± 0.4"}, {"sequence": "TGATATTTCATCATAGTGCAATATGGCATATAAATA [GTGCAC_site9433]", "gcPBM binding intensity (ln)": "8.69 ± 0.45"}, {"sequence": "AATATATATATAAATAGTACATATAAAGAGAATTTT [XGTACX_site3168]", "gcPBM binding intensity (ln)": "8.84 ± 0.5"}, {"sequence": "CAGAAATATTCTTATACACACTGTTCTTATATTCCT [CACACA_site4318]", "gcPBM binding intensity (ln)": "9 ± 0.47"}, {"sequence": "ATTAAAACAAAATGTACACACATATAATTTAATGAC [CACACA_site878]", "gcPBM binding intensity (ln)": "9.09 ± 0.48"}, {"sequence": "TTTATCTTTTTTTGTTGTACAGATGTTTATATTTTA [XGTACX_site4065]", "gcPBM binding intensity (ln)": "8.9 ± 0.49"}, {"sequence": "AAAATGAAAATGAAAATGAAAATGGGAAAATGTCAA [TGCATGCA_negctrl_site488]", "gcPBM binding intensity (ln)": "8.87 ± 0.44"}, {"sequence": "TATAATTATATGTATACACACACATACATTTACATA [CACACA_site9061]", "gcPBM binding intensity (ln)": "9.31 ± 0.3"}, {"sequence": "TAAATAAAAAAGAATACACACAGCATGCATAAATAT [CACACA_site237]", "gcPBM binding intensity (ln)": "9.38 ± 0.35"}, {"sequence": "TTATATATAAGTTTATTCATTTTTTTTTTTTTTTTT [XGTACX_negctrl_site573]", "gcPBM binding intensity (ln)": "8.28 ± 0.52"}, {"sequence": "CATATATATCGTAATGCACACATGTAATTTCATAAT [CACACA_site811]", "gcPBM binding intensity (ln)": "9.18 ± 0.46"}, {"sequence": "TCTGTATATTATTCAAGTACACAATATAAATATAAA [XGTACX_site7241]", "gcPBM binding intensity (ln)": "8.51 ± 0.48"}, {"sequence": "TATTGTTTTTTTTACTGTACACAAGTAAATGAAAAA [XGTACX_site790]", "gcPBM binding intensity (ln)": "8.27 ± 0.42"}, {"sequence": "AAAAAATTCAAAAGGTGTACAACATTATATTATTCC [XGTACX_site5118]", "gcPBM binding intensity (ln)": "8.88 ± 0.36"}, {"sequence": "GTATATAATTAAAGTTGTACCCTTAAAAAAGGGAAA [XGTACX_site7278]", "gcPBM binding intensity (ln)": "8.46 ± 0.42"}]}]}
